Consider 1 molecule from patent US20080045697A1 (Genentech, published 2008).

The target of the assay is T1, complement C3b (UniProt P01024 23-667; P01024 in part).
T1 construct: range 1-645;range 729-1641; The residue numbers seem to count on C3 without its signal peptide
Put plainly: crystal structure of the complex. The text has this: After refinement applying non-crystallographic symmetry restraints the final Rcryst and Rfree were 23.7% and 29.7%, respectively. Crystals of the C3b:CRIg complex diffracted to 4.1 Å resolution, belonged to space group C222₁ with cell parameters of a=97.6 Å, b=255.7 Å and c=180.3 Å. After molecular replacement using the C3c:CRIg complex, models of the CUB domain (pdb code 2A73) and the TED domain (1C3D) were manually docked in the electron density map. After rigid body refinement, clear density for the regions linking the TED and CUB domains as well as two glycosylation sites had interpretable density and could be fitted into the electron density. The final model includes a complex of CRIg and C3b without the C345C domain; the latter domain has very weak density and was included in the model with occupancies set to 0.0 to for FIG. 1. The final Rcryst and Rfree were 25.2% and 33.3% respectively.
It has been recently determined that the complement receptor CRIg forms complexes with C3b and iC3b, yet is unable to bind the parent molecule C3 (K. Y. Helmy et al., Cell 124, 915 (2006)). To better understand the structural basis for the selectivity of CRIg, the crystal structure of CRIg in its unbound state was determined at high resolution as well as in complex with C3b and C3c (4.1 Å and 3.2 Å resolution, respectively). […]

T1 sequence (P01024 23-667 limits assumed, chain 1 of 2): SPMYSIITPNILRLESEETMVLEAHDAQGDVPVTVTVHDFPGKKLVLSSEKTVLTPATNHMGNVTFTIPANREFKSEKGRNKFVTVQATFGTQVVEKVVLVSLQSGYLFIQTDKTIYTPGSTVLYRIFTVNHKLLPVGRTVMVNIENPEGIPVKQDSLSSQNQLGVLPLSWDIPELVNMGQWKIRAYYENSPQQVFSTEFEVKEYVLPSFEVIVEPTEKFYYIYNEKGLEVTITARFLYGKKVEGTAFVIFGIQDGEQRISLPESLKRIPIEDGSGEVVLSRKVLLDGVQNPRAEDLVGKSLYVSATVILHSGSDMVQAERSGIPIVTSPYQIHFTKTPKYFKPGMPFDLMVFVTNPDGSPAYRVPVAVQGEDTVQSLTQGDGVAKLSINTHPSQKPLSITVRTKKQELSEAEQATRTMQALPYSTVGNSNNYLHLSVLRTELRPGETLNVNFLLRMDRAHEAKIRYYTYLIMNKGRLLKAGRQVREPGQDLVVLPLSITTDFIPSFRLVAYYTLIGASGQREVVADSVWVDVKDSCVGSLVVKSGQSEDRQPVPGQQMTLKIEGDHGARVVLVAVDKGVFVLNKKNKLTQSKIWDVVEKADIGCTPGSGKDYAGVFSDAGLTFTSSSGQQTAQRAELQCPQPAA
T1 sequence (P01024 751-1663 limits assumed, chain 2 of 2): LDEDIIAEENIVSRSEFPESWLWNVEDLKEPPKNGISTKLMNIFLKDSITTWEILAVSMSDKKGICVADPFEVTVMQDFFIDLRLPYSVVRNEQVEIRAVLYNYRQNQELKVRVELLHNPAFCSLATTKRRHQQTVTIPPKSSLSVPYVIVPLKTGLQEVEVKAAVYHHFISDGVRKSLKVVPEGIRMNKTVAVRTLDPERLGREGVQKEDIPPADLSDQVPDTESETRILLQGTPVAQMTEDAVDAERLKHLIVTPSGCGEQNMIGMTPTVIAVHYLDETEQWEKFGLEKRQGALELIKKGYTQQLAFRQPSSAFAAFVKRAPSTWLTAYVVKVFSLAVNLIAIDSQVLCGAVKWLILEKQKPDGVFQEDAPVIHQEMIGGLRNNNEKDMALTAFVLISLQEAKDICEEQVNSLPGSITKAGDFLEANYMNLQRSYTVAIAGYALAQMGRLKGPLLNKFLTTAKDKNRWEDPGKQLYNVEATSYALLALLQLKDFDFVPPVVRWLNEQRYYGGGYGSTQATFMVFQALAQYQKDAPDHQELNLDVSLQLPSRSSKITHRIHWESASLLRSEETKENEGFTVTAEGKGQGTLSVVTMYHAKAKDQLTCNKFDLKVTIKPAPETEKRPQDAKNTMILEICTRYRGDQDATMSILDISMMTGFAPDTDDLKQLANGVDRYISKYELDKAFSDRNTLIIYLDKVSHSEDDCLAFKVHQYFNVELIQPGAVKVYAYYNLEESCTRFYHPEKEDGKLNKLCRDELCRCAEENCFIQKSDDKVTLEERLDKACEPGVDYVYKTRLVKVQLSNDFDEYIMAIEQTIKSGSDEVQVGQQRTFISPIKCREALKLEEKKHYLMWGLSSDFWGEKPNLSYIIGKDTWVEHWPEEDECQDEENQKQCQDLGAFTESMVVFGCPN

B1: CRIg, […] of mature human CRIg of SEQ ID NO: 2 (SEQ ID NO: 8) (receptor)
chain: not shown
notes: Made in pET28b with an N-terminal His-tag and thrombin site; the tag was cut off with thrombin before use; Range […] counts on the mature protein; also called purified CRIg; N-terminal domain of CRIg
In the case of B1, the binding result was “binds”.
